Reference: the antibiotic and cytotoxicity screens of Wong et al. (2023)
The list shows a part of the results.

These compounds were tested on S. aureus RN4220 (assay: growth inhibition call (relative growth <= 0.2)). Conditions: 50 µM.

Row | Structure (SMILES) | growth inhibition call
1 | CC(O)(CS(=O)(=O)c1ccc(F)cc1)C(=O)Nc1ccc(C#N)c(C(F)(F)F)c1 (centres undefined) | inactive
2 | Cc1nc(N2CCN(C)CC2)ccc1N | inactive
3 | Cc1ccc(N2CCO[C@@H]3CNCC[C@H]3C2)nn1 | inactive
4 | CCCCS(=O)(=O)N1C[C@H]2CNC[C@@H]2C1 | inactive
5 | CNC(=O)Oc1ccc2c(c1)C1(C)CCN(C)C1N2C.O=S(=O)(O)O (centres undefined) | inactive
6 | COCC(=O)N1[C@@H]2Cn3c(ccc(C4=CCCC4)c3=O)[C@H]1[C@@H](C(=O)OC)[C@@H]2CO | inactive
7 | CC(=O)NC1CCSC1=O (centres undefined) | inactive
8 | Cc1cc2c(C(C)C)c(O)c(O)c(C=O)c2c(O)c1-c1c(C)cc2c(C(C)C)c(O)c(O)c(C=O)c2c1O | inactive
9 | Cn1cc(N2C[C@@H]3CN(CCO)C[C@@H]3C2=O)cn1 | inactive
10 | N#C[C@H](O[C@@H]1O[C@H](CO[C@@H]2O[C@H](CO)[C@@H](O)[C@H](O)[C@H]2O)[C@@H](O)[C@H](O)[C@H]1O)c1ccccc1 | inactive
11 | CCN1C[C@]2(COC)CC[C@H](O)[C@@]34[C@@H]2[C@@H](OC)[C@@H]([C@@H]13)[C@@]1(OC(C)=O)C[C@H](OC)[C@H]2C[C@H]4[C@@H]1[C@@H]2OC(C)=O | inactive
12 | Cc1cc(OC(=O)N(C)C)cc(=O)n1C | inactive
13 | O=[N+]([O-])c1cc([As](=O)(O)O)ccc1O | inactive
14 | NC1CC1c1ccccc1.O=S(=O)(O)O (centres undefined) | inactive
15 | COC(=O)C[C@@H]1CC[C@H]2NC[C@@H](O)COC[C@@H]2O1 | inactive
16 | COC(=O)C1=COC(C)C2CN3CCC4(C(=O)Nc5ccccc54)C3CC12 (centres undefined) | inactive
17 | CC(C)C12OC1C1OC13C1(C)CCC4=C(COC4=O)C1CC1OC13C2O (centres undefined) | inactive
18 | O=[As]O[As]=O (centres undefined) | inactive
19 | CN(C)C(=O)C(CCN1CCC(O)(c2ccc(Cl)cc2)CC1)(c1ccccc1)c1ccccc1.Cl | inactive
20 | NC[C@@H](CC(=O)O)c1ccc(Cl)cc1 | inactive

Row | Structure (SMILES) | growth inhibition call
21 | CC(C(O)c1ccccc1)N(C)C (centres undefined) | inactive
22 | O=C1C[C@@H](CO)CN1 | inactive
23 | CC(=O)OC1C2CCC3C(C)(O)C4CC(O)C(C)(C)C4(O)C(O)CC13CC2(C)O (centres undefined) | inactive
24 | Cc1ccc(-n2nccn2)c(C(=O)N2CCN(c3nc4cc(Cl)ccc4o3)CCC2C)c1 (centres undefined) | inactive
25 | CN1CCC2(C)c3cc(O)ccc3N(C)C12.O=C(O)C=CC(=O)O (centres undefined) | inactive
26 | [N-]=[N+]=NCc1ccccc1C[C@@]1(C(=O)NCCN2CCOCC2)N=C(c2ccc(OCCCO)cc2)O[C@@H]1c1ccccc1N=[N+]=[N-] | inactive
27 | CN(CC[C@H](N)CC(=O)N[C@H]1C=C[C@@H](n2ccc(N)nc2=O)O[C@@H]1C(=O)O)C(=N)N | inactive
28 | NCCc1ccccn1 | inactive
29 | C[C@]12CC[C@](C)(O1)[C@H](C(=O)O)[C@@H]2C(=O)O | inactive
30 | COC(=O)C[C@H]1CC[C@@H]2NC[C@@H](O)COC[C@H]2O1 | inactive
31 | C[N+]12CCC(CC1)C(OC(=O)C(O)(c1ccccc1)c1ccccc1)C2.[Br-] (centres undefined) | inactive
32 | O=[N+]([O-])C(Br)(CO)CO | active
33 | CC12CC(=O)C3C(CCC4=CC(=O)CCC43C)C1CCC2=O (centres undefined) | inactive
34 | NCc1cccnc1 | inactive
35 | CC(C)(C)[C@H]1CC[C@@]2(CC1)C[C@@H](C[Si](C)(C)C)OO2 | inactive
36 | C=CCc1ccc(OC)cc1 | inactive
37 | Cc1cccc([C@H](CN)N(C)C)c1 | inactive
38 | Cn1cc([C@@]23C[C@]2(C)COC3=O)cn1 | inactive
39 | CCCCOC(=O)C1=CC(=O)CC(C)(C)O1 | inactive
